Results on 84 variants are retold here after the RNAGym collection of RNA variant scans (doi:10.1093/nar/gkz1192).

Read counts are not given, so values of variants with three or more changes are uncertain.

Sequences and labels used below:
B1: CPEB3 Ribozyme (parent)
chain: UAACAGGGGGCCACAGCAGAAGCGUUCACGUCGCAGCCCCUGUCAGAUUCUGGUGAAUCUGCGAAUUCUGCUGUAUAUCUC

This data set covers variants of B1. The data set is described as follows: self-cleavage, relative activity (ratio to wild type); higher = more cleavage; in vitro, sequencing. The gist of the method:
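For each CPEB3 ribozyme variant, relative activity is its cleaved/total read fraction divided by the unmutated ribozyme's. Barcoded error-prone PCR libraries were transcribed by T7 RNA polymerase (5 hours, 37°C) and held in DNase I for 15 min before an EDTA stop, with cleavage occurring throughout. Template-switching reverse transcription and Illumina sequencing were used to read the RNAs. A 5-read minimum applied, and results are the mean of three batches.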
As for A15G A18G C38A, the self-cleavage came to 0.44.
For A15C U26C U48C A65C the value was 0.04; for A15G A18G G33A A45C U51G U67C U74A, 0.03; for A15G A20G A21C A28C, 0.04.
As for A15C U43C A65G U80C, the self-cleavage worked out at 0.18.
As for A15G A18U U54A, the figure is 0.4.
In the case of A15G A18G C37A U74C, the self-cleavage is 0.16.
On to A15C U26A A45U, for which the self-cleavage came out at 0.33.
For A15C C29U U48C U69C the value was 0.13; for A15G A20G C29U U54C A64U, 0.17; for A15G A18U A21C A45U U66C, 0.02.
As for A15C C38U U49C, the figure is 0.24; as for A15G A18G G30A U41C U69C, 0.12; as for A15G A18U A28C A35G C40A U74C, 0.05.
For A15C U41A A65U the value was 0.23; for A15C C40A U69A, 0.18; for A15C U26C A35G U43A U76A, 0.14.
Take A15C U66C U69A: the self-cleavage was 0.12.
For A15C U26C U60A U67C, the self-cleavage turned out to be 0.18.
Regarding A15G A18G U26C U41A, the self-cleavage amounted to 0.06.
For A15G A18G A20U C62A U72C the value was 0.05; for A15C C37A U49C, 0.25.
On to A15G A20G A28C U51C, for which the self-cleavage came to 0.18.
For A15C C32U U54G A75U the value was 0.15.
As for A15C U25C A57U U60C U80A, the figure is 0.17; as for A15G A18U U26C U43C G52A U69C, 0.26; as for A15C U25C U26G A56G U80G, 0.11.
Turning to A15C U51C U54C U60C U67C U72A, the self-cleavage was determined as 0.13.
As for A15C G16U G33A U41C U43C U72C, the figure is 0.04; as for A15G A18G U49C U72C C79U, 0.41; as for A15G A18G G36U C40U U54C A64G U69A, 0.07.
As for A15G A18G U41C A47U U66C C71U, the figure is 0.17.
Take A15G A18U A65G U69G U80C: the self-cleavage was found to be 0.17.
As for A15G A18U U43A A47G U67A U80A, the figure is 0.1.
As for A15G A18U U25C, the figure is 0.07; as for A15G A20G C37U U78A, 0.33.
For A15G A18U G19C C34U U49C U58C the value was 0.08; for A15C G36U A47G, 0.08.
For the variant A15C U31C A56G U76A, the self-cleavage amounted to 0.23.
For A15C U26A U49C U72C U78C the value was 0.26; for A15G A20G A56G, 0.23; for A15C U26C U48C, 0.4.
As for A15G A18U U41A U80C, the figure is 0.37; as for A15C U43C A57G U78C, 0.32.
For A15G A18G A28G U54A A57G the value was 0.13; for A15C U26C C34U, 0.21.
Regarding A15C G19A G55C U69C, the self-cleavage stood at 0.09.
As to A15G A18U U51C U54C U69C, the self-cleavage amounted to 0.35.
As for A15C U49C U72C, the figure is 0.21; as for A15C G42A A57G A77G, 0.08; as for A15G A18G G33A G46U U67C A77U, 0.08.
For A15G A20G A35G A57G U58C U72C the value was 0.08; for A15G A20G A57U A64G, 0.18; for A15G A18G U26A A28G U41C, 0.39.
As for A15G A18U A35G U41C U72C, the figure is 0.24.
Consider A15G A18G A20U A21U U31A U51C U58C, for which the self-cleavage was determined as 0.04.
On to A15C U49C C79A, for which the self-cleavage worked out at 1.19.
As for A15G A18G U48C A56G U67C U69C, the self-cleavage is 0.21.
As for A15G A18U U69C U80C, the figure is 0.22; as for A15G A18U C29A A35G A75G, 0.25.
In the case of A15G A18G U48A C50U, the self-cleavage was determined as 0.08.
For A15G A18G G24A, the self-cleavage worked out at 0.31.
Turning to A15G A20G A21G U41A U49C, the self-cleavage stood at 0.06.
As for A15C U58A A77U, the figure is 0.42.
As for A15G A20G C79A, the figure is 0.64; as for A15G A20C A35U A64U U66C U80A, 0.07.
For A15G A18U U26A U48A U66C the value was 0.04.
In the case of A15G A18C U31A U58C, the self-cleavage was determined as 0.07.
Turning to A15C U43C A57G, the self-cleavage stood at 0.42.
As for A15G A18U U41A, the self-cleavage came out at 0.2.
With A15G A18G U54C, the self-cleavage worked out at 0.29.
For A15C U72C G73A the value was 1.28.
As for A15G A18U G19A, the figure is 0.28; as for A15G A18G U78A, 0.09.
For A15G A18G G30A A75G the value was 0.05.
As for A15G A18U A64G, the self-cleavage turned out to be 0.5.
As for A15C C32U U41A U80A, the figure is 0.09.
For A15G A20G A56C U60A U67A the value was 0.09; for A15G A18G U51C, 0.1; for A15G A18U A20G U25C U58C, 0.45.
For A15C G22U U26C G63U A64G U78C the value was 0.12; for A15G A20G A57G C71U, 0.19; for A15G A18G C62U, 0.1.
As for A15G A18G A21G G42U U51C, the self-cleavage was determined as 0.18.
